± gives the standard deviation. The full ranking holds about 6,600 sequences; the median of “pre-steady-state target cleavage rate” is about 0.07, and the highest 2% start at about 0.72. The entries are a selection whose mix differs from that of the whole data set.
These sequences were tested on MIWI (PIWIL1) piRISC loaded with Kctd7 piRNA (30 nt) (assay: pre-steady-state target cleavage rate (min^-1); MIWI and MILI are mouse PIWI proteins and EfPiwi is from a freshwater sponge; tags in brackets are library labels; higher = faster piRNA-guided slicing of the target). Conditions: guide: Kctd7 piRNA 5'p-UGUUAAUCUCUCAGAGAAGGUGACAGUGAU; auxiliary factor: 500 nM mouse GTSF1.
Method: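 Cleave-'n-Seq: a library of target RNAs (target site embedded in constant flanks, ACAGCATTCCGCGTTAGTGATATCCG... 5' flank; DNA-blocked outside the site) at 0.1 nM was incubated with 1 nM active mouse MILI or MIWI piRISC (synthetic 5'-monophosphorylated piRNA guide) with or without 500 nM mouse GTSF1 at 33 °C for 1 min to 16 h. Uncleaved targets were sequenced and normalised to non-target controls, and the pooled three trials were fitted to a burst-and-steady-state model to give the pre-steady-state cleavage rate (min^-1; k3 is constrained to at most 1e-4). Sequence is the target site only; target names encode pairing extent (gX:gY) and contiguous / 1-mismatch / 2-mismatch / bulge geometry. Fits with R² ≤ 0 are excluded.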
In the case of UAGUGAGUCAGGAUCUCUGAGAGAUUAACA, the “pre-steady-state target cleavage rate” value is reported as 0.00821 ± 0.0023. With UACACUGUCACCUUACUCUGAGAGAUUAACA the “pre-steady-state target cleavage rate” value was 0.579 ± 0.044. UAGUCUGUCACCUUCACUGAGAGAUAAACA was tested, and the “pre-steady-state target cleavage rate” value was 0.183 ± 0.019. For AUCUCUGUCACCUUCACUGAGAGAUUAACA, the “pre-steady-state target cleavage rate” value was 0.493 ± 0.028. With UAGUGAGUCACCUUCUCUCAGAGAUUAUGA the “pre-steady-state target cleavage rate” value was 0.00636 ± 0.004. In the case of UUCACAGUCACCUUCUCUGAGAGAUAUUGA, the “pre-steady-state target cleavage rate” value is reported as 0.117 ± 0.037. With UAGUGAGUCACCUUCUGUGACAGAUUAACA the “pre-steady-state target cleavage rate” value was 0.307 ± 0.053. For UACACUGUCACCUUCUCUGUGAGAUUAAGA, the “pre-steady-state target cleavage rate” value was 0.0759 ± 0.02. In the case of UACACUGUCACCUUCAGUGAGAGAUUAUGA, the “pre-steady-state target cleavage rate” value is reported as 0.00705 ± 0.005. With UAGUGUGUCCCUUCUCUGAGAGAUUAACA the “pre-steady-state target cleavage rate” value was 0.414 ± 0.031. With UAGACUGUCACCUUCUCGGAGAGAUUAACA the “pre-steady-state target cleavage rate” value was 0.218 ± 0.012. For UAGUGAGUCACCUUCUCUGUGAGUUUAACA, the “pre-steady-state target cleavage rate” value was 0.11 ± 0.021. UAGACUGUCACCUUCUCUGAGAGAUUACACA was tested, and the “pre-steady-state target cleavage rate” value was 0.33 ± 0.047. UAGUGACAGUGCUUCUCUGAGAGAUAAACA was tested, and the “pre-steady-state target cleavage rate” value was 0.00612 ± 0.0024. With AUCACUGUGUCCUUCUCUGAGAGAUUAAGA the “pre-steady-state target cleavage rate” value was 0.161 ± 0.027. For AUCACUGUCACCUUCUCUGAGAGAUUAGACA, the “pre-steady-state target cleavage rate” value was 0.392 ± 0.065. In the case of UACACAGUCUCCUUCUCUGAGAGAUUAACA, the “pre-steady-state target cleavage rate” value is reported as 0.451 ± 0.032. For UUCACUGUCACCUUCUCUGAGAGUAAAUGA, the “pre-steady-state target cleavage rate” value was 0.172 ± 0.048. For UACACUGUCAGGAUCUCUGAGAGAUUAACA, the “pre-steady-state target cleavage rate” value was 0.132 ± 0.017. With UAGUGACAGUCCUUCUCUGAGAGGUUAACA the “pre-steady-state target cleavage rate” value was 0.0155 ± 0.0032. UAGACAGUCACCUUCUCUGAGAGAUUUUGA was tested, and the “pre-steady-state target cleavage rate” value was 0.0433 ± 0.0095. UAGUGACAGUCCUUCUCUGAGAGAUAAUCA was tested, and the “pre-steady-state target cleavage rate” value was 0.00284 ± 0.0022. In the case of UAGACUGUCACCUUGUCUGAGAGAUUUUGA, the “pre-steady-state target cleavage rate” value is reported as 0.234 ± 0.066. With UAGUGACACACGUUCUCUGAGAGAUUUACA the “pre-steady-state target cleavage rate” value was 0.0739 ± 0.014. With UAGUGACAGUGGAACUCUGAGUCUUUAACA the “pre-steady-state target cleavage rate” value was 0.0246 ± 0.014. In the case of UUCACUGUCACCUUCUCUGAGAAGAUUAACA, the “pre-steady-state target cleavage rate” value is reported as 0.0445 ± 0.0082. In the case of UAGUCUGAGACCUUCUCUGAGAGAUUAAGA, the “pre-steady-state target cleavage rate” value is reported as 0.0609 ± 0.01. For UAGUCUGUGACCUUCUCUGAGAGAUAAACA, the “pre-steady-state target cleavage rate” value was 0.266 ± 0.021. With UAGUGACAGACCAUCUCUGAGAGAUUAAGA the “pre-steady-state target cleavage rate” value was 0.00549 ± 0.0026. For UACACUGUCACCUUCUCUCUGAGAUUAAGA, the “pre-steady-state target cleavage rate” value was 0.0125 ± 0.0076. With UUCACUGUCACCUUCUCUCAGAGAUUAAGA the “pre-steady-state target cleavage rate” value was 0.0566 ± 0.013. In the case of UAGUGAGUCACCUACUGUGAGAGAUUAACA, the “pre-steady-state target cleavage rate” value is reported as 0.337 ± 0.022. With UACACUGUCAGCUUCUCUGAGAGAUUUUGA the “pre-steady-state target cleavage rate” value was 0.009 ± 0.0033. For UUCACAGUCACCUUCUCUGUGAGAUUAACA, the “pre-steady-state target cleavage rate” value was 0.116 ± 0.019. In the case of AUCACUGUCACCUUCUCAGAGAGAUUUACA, the “pre-steady-state target cleavage rate” value is reported as 0.279 ± 0.042. For UUCACUGUCACCAUCUCUGAGAGAUUUUGA, the “pre-steady-state target cleavage rate” value was 0.0248 ± 0.0096. For AUCACUGUCACCUACUCUGAGAGAUUUACA, the “pre-steady-state target cleavage rate” value was 0.393 ± 0.063. For UAGUCACUCACCUUCUCUGAGAGAUAUUGA, the “pre-steady-state target cleavage rate” value was 0.0175 ± 0.0051. In the case of UAGUCUGUCACCUACUCUGAGAGUUUAACA, the “pre-steady-state target cleavage rate” value is reported as 0.276 ± 0.047. With UAGUGACACACCUUCACUCAGAGAUUAACA the “pre-steady-state target cleavage rate” value was 0.0045 ± 0.004. In the case of UAGUGACAGACCUUCUAUGAGAGAUUAACA, the “pre-steady-state target cleavage rate” value is reported as 0.0147 ± 0.0058. For UUCUGUGUCACCUUCUCUGAGAGAUUAUGA, the “pre-steady-state target cleavage rate” value was 0.114 ± 0.018. UAGUGUGUCUCCUUCUCUGAGAGAUUUACA was tested, and the “pre-steady-state target cleavage rate” value was 0.0537 ± 0.011. With UAGUGUGUCACCUUCUCUGAGAGAUAACA the “pre-steady-state target cleavage rate” value was 0.0418 ± 0.011. In the case of UAGUGACAGACCUUCUCUGUGAGAUUAAGA, the “pre-steady-state target cleavage rate” value is reported as 0.00996 ± 0.0042. In the case of UAGUGACACACCUUGUCUGAGAGAUUAUCA, the “pre-steady-state target cleavage rate” value is reported as 0.0171 ± 0.0084. UAGUCUGUCAGGAUCUCUGAGAGAUUAACA was tested, and the “pre-steady-state target cleavage rate” value was 0.0642 ± 0.0098. In the case of UAGUGACUCACCUUCACUGAGACAUUAACA, the “pre-steady-state target cleavage rate” value is reported as 0.171 ± 0.024. For UAGUCUGUCACCUGUCUCUGAGAGAUUAACA, the “pre-steady-state target cleavage rate” value was 0.545 ± 0.032. UAGUGACUCACCUACUCUGAGAGAUUAAGA was tested, and the “pre-steady-state target cleavage rate” value was 0.046 ± 0.011. UAGUGAGUCACCUUCUCUGAGACAUUAACA was tested, and the “pre-steady-state target cleavage rate” value was 0.224 ± 0.022. With “UAGUGACAGUGCUUCUCUGAGAGAUUAACC [g2:g19:cont:t1C]” the “pre-steady-state target cleavage rate” value was 0.0079 ± 0.0021. With UAGUCUGUCACCUUCUCUGAGAAAUUAACA the “pre-steady-state target cleavage rate” value was 0.271 ± 0.03. UACACUGUCACCUUCUCAGAGAGAUUUACA was tested, and the “pre-steady-state target cleavage rate” value was 0.162 ± 0.026. With UAGACUGUCACCUUCUCUGGAGAUUAACA the “pre-steady-state target cleavage rate” value was 0.191 ± 0.015. UAGUCUGUCACCUUCUCUUAGAGAUUAACA was tested, and the “pre-steady-state target cleavage rate” value was 0.319 ± 0.02. With UAGUGACUCACCUUCUCUGAGAGAUUAAAA the “pre-steady-state target cleavage rate” value was 0.122 ± 0.015. In the case of UAGUCUGUCGACCUUCUCUGAGAGAUUAACA, the “pre-steady-state target cleavage rate” value is reported as 0.195 ± 0.035. For UAGUGACAGACCUUCUGUGAGACAUUAACA, the “pre-steady-state target cleavage rate” value was 0.0295 ± 0.0071. UAGUGACUCACCUUCUCUGAGAGACUAACA was tested, and the “pre-steady-state target cleavage rate” value was 0.21 ± 0.039. For UAGUCUGUCACCUACUGUGAGAGAUUAACA, the “pre-steady-state target cleavage rate” value was 0.198 ± 0.014. With UAGUGACUCACGUUCUCUGAGUGAUUAACA the “pre-steady-state target cleavage rate” value was 0.00871 ± 0.003. For UAGUCUGUCACCUUCUCUAAGAGAUUAACA, the “pre-steady-state target cleavage rate” value was 0.455 ± 0.018. For UAGUCUGUCACGUUCUCUGAGAGAUAAACA, the “pre-steady-state target cleavage rate” value was 0.262 ± 0.027. UUCACUGUCACCUUCUCGAGAGAUUAACA was tested, and the “pre-steady-state target cleavage rate” value was 0.0841 ± 0.013. With UAGUGACAGUCCUUCUGUGAGAGAUUUACA the “pre-steady-state target cleavage rate” value was 0.00915 ± 0.0023. UAGUGACAGUCCUUCUCUGAGACAAUAACA was tested, and the “pre-steady-state target cleavage rate” value was under 0.0001. AACACUGUCACCUUGUCUGAGAGAUUAACA was tested, and the “pre-steady-state target cleavage rate” value was 0.611 ± 0.088. With UACACUGUCACCUUCUCUGAGGAGAUUAACA the “pre-steady-state target cleavage rate” value was 0.00908 ± 0.0056. For UAGUGACACACCUUCACUGAGAGAUUAACA, the “pre-steady-state target cleavage rate” value was 0.372 ± 0.036. In the case of UAGUCUGUCACCUUCUCUGAGAAGAUUAACA, the “pre-steady-state target cleavage rate” value is reported as 0.0551 ± 0.0094. For UAGUGAGUCUCCUUCUGUGAGAGAUUAACA, the “pre-steady-state target cleavage rate” value was 0.261 ± 0.024.

Reference: the supplement of paper PMC10338343
